The whole screen tested about 390,000 compounds, of which about 910 (0.23%) were called active. Not shown: some 5% with an inconclusive outcome. Calls follow the shape of the dose curve; as a rule, active = well fitted inhibition curve with a large enough effect; inconclusive = small, poorly fitted or top-dose-only effect; inactive = no such curve, though single readings can be large or run the other way. Only a part is listed here, and it is no random draw.
target: Ubiquitin carboxyl-terminal hydrolase 1 (Homo sapiens) (UniProt O94782); experiment: Inhibitors of USP1/UAF1: Primary Screen; settings: recombinant USP1/UAF1, Ub-Rhodamine cleavage fluorescence; activity change, negative = inhibition: at 57.1 µM (top of the series); also: nearly all actives have a fitted effect of over 60% in size
Chain of UniProt O94782 (O94782 whole entry, looked up): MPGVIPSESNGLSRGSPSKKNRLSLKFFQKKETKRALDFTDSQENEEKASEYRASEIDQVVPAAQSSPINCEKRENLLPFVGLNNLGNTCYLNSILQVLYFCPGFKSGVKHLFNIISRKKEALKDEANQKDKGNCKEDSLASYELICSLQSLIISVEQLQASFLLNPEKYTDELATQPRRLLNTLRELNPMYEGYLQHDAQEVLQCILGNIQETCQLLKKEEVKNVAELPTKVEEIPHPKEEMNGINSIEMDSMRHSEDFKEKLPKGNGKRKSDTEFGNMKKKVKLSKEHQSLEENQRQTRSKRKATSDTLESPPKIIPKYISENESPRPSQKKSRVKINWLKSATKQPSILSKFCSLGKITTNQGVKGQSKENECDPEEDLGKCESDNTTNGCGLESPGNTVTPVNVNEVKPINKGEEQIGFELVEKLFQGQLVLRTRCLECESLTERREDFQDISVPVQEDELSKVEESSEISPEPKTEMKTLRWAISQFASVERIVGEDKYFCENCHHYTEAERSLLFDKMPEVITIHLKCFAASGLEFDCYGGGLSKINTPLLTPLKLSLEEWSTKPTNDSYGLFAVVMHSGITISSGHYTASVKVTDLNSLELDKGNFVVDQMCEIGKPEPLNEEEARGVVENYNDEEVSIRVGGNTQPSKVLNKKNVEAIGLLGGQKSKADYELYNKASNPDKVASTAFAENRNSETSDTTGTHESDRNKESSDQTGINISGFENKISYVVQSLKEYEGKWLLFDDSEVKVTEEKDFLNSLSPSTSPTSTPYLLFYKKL
Outline: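 USP1/UAF1 complex at 1 nM was preincubated with compound for 15 min at room temperature, then Ub-Rho substrate (150nM final) was added. Fluorescence (480/540 nm) was read kinetically, 6 reads every 60 seconds.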
% is scaled to controls: 0 for no effect and ±100 for the full control effect; potency is read from the fitted curve at half-maximal effect.

Row | SMILES | activity change, negative = inhibition | Potency
1 | CCC1CCCCN1CCCNC(=O)c1cn(CC)c2ccc(S(=O)(=O)N(C)C3CCCCC3)cc2c1=O (stereo not drawn) | inactive: -11.1% | –
2 | O=C1C=C(Nc2ccccc2C(=O)O)c2ccccc2C1=O | – | active: 7.94 µM
3 | O=C(N/N=C/C(Br)=C\c1ccccc1)c1cccs1 | inactive: -2.91% | –
4 | CC(=O)Nc1ccc(NC(=O)c2cc(=O)c3ccccc3o2)cc1 | inactive: -2.12% | –
5 | CCc1ccc(S(=O)(=O)/N=C2\C=C(NS(=O)(=O)c3ccccc3)C(=O)c3ccccc32)cc1 | – | active: 25.1 µM
6 | Cc1cccc(C)c1Nc1c(-c2ccc(N3CCOCC3)cc2)nc2ncccn12 | inactive: -35% | –
7 | CC(=O)O[C@]1(C(C)=O)CC[C@H]2[C@@H]3C=C(Cl)C4=CC(=O)[C@@H]5C[C@@H]5[C@]4(C)[C@H]3CC[C@@]21C | inactive: -12.9% | –
8 | CC(=O)C[C@H](O)CC(=O)[C@H]1OC(=O)CCCCC/C=C/Cc2ccccc21 | inactive: 19.2% | –
9 | CC(C)NC(=O)N(C)C[C@@H]1Oc2c(NS(=O)(=O)c3ccccc3)cccc2C(=O)N([C@@H](C)CO)C[C@@H]1C | inactive: -29.3% | –
10 | O=C(O)COCCN1CCN(C(c2ccccc2)c2ccc(Cl)cc2)CC1 (stereo not drawn) | inactive: -10.2% | –
11 | CC(=O)OCC(=O)C1(O)CCC2C3CCC4=CC(=O)C=CC4(C)C3C(O)CC21C (stereo not drawn) | inactive: 10.9% | –
12 | C[C@@H]1CN([C@@H](C)CO)C(=O)CCCn2nncc2CO[C@@H]1CN(C)C(=O)CCC(F)(F)F | inactive: -15.1% | –
13 | CCOC(=O)C1=C(CC)OC(N)=C(C#N)C1c1ccc(OC)c(C)c1OC (stereo not drawn) | inactive: -8.88% | –
14 | C=CC[C@H](CC(=O)OC(C)(C)C)C(=O)OC[C@H]1CCCN1C(=O)[C@H](CC=C)CC(=O)NCCO | inactive: -17.3% | –
15 | COc1cc(NC(=O)CSc2ccc(-c3ccccn3)nn2)cc(OC)c1 | inactive: -22.6% | –
16 | O=C1OC[C@@H]2CCCN2C(=O)[C@H](CC(=O)N(CCO)Cc2ccccc2)C/C=C\CC[C@@H]1Cc1ccc(F)cc1 | inactive: -4.81% | –
17 | CC1CCCN(c2nc3ccccc3nc2C(C#N)S(=O)(=O)c2cccs2)C1 (stereo not drawn) | inactive: 143% | –
18 | C[C@H]1CN([C@@H](C)CO)C(=O)CCCn2nncc2CO[C@H]1CN(C)C(=O)CCC(F)(F)F | inactive: -1.84% | –
19 | O=C(O)c1[nH]c2ccccc2c1C(c1cc(Cl)cc([N+](=O)[O-])c1O)c1c(C(=O)O)[nH]c2ccccc12 | – | active: 31.6 µM
20 | C[C@@H]1CN([C@H](C)CO)C(=O)CCCn2nncc2CO[C@@H]1CN(C)C(=O)c1ccccc1 | inactive: -13% | –
21 | O=C(C1=C[C@H](c2csc3ccccc23)C[C@H](OCc2ccc(CO)cc2)O1)N1CCN(Cc2ccc3c(c2)OCO3)CC1 | inactive: -30% | –
22 | O=C(Nc1ccccc1)c1nc[nH]c1C(=O)O | inactive: 24.9% | –
23 | CN(C)CCNC(=O)c1ccc(-c2nn(C)c(=O)c3ccccc23)cc1 | inactive: -1.94% | –
24 | CCOC(=O)CCCCCC(=O)Nc1ccc2c(c1)C(=O)N([C@H](C)CO)C[C@H](C)[C@@H](CN(C)C(=O)Nc1ccccc1)OCCCC[C@@H](C)O2 | inactive: 7.44% | –
25 | COC(=O)c1ccc2c(=O)n(CCCCCC(=O)NC(C)C)c(=O)[nH]c2c1 | inactive: -14% | –
26 | COc1ccc([C@H]2C[C@H](n3cc(COC(=O)c4ccccc4)nn3)[C@@H](O)CN2C(=O)C2CCCCC2)cc1 | inactive: 0.197% | –
27 | C=CC[C@@H](Cc1ccc(F)cc1)C(=O)OC[C@@H]1CCCN1C(=O)[C@@H](CC=C)CC(=O)N(CCO)Cc1ccccc1 | inactive: -16.5% | –

Row | SMILES | activity change, negative = inhibition | Potency
28 | CCN(c1cc(C)cc(C)c1)S(=O)(=O)c1nnc(NC(=O)c2ccco2)s1 | inactive: -12.8% | –
29 | CC(=C/c1ccccc1)/C=N/NC(=O)c1cccs1 | inactive: -3.99% | –
30 | Cc1cc(NC2=CC(=O)C(=O)c3ccccc32)no1 | – | active: 2.51 µM
31 | COc1cc(OC)c(NC(=O)CCNS(=O)(=O)c2ccc3c(c2)oc(=O)n3C)cc1Cl | inactive: -2.3% | –
32 | Nc1ccc(-c2c3ccc(=O)cc-3oc3cc(O)ccc23)c(C(=O)O)c1 | – | active: 28.2 µM
33 | O=C(O)C1CC(c2cccc(Br)c2)=NO1 (stereo not drawn) | inactive: 30.1% | –
34 | O=C(NC1CC1)C1=C[C@@H](c2ccc(C(F)(F)F)cc2)C[C@@H](OCc2ccc(CO)cc2)O1 | inactive: -28.6% | –
35 | COc1ccc(CC(=O)Nc2ccccc2C(=O)N2CCOCC2)cc1OC | inactive: 86.1% | –
36 | CCC(CN(C)C)Oc1cc(NCc2ccccc2)c2ncn(C(C)C)c2c1 (stereo not drawn) | – | active: 28.2 µM
37 | C[C@H](CO)N1C[C@H](C)[C@H](CN(C)C(=O)c2ccc(N3CCN(C)CC3)cc2)OCc2cnnn2CCCC1=O | inactive: -31.3% | –
38 | N#Cc1c(NC(=O)c2ccccc2Cl)n(Cc2ccccc2)c2nc3ccccc3nc12 | – | active: 25.1 µM
39 | Cc1ccccc1N(C)S(=O)(=O)c1nnc(NC(=O)c2ccccc2F)s1 | inactive: -26.1% | –
40 | N#CC(C(=O)OCc1ccccc1)c1nc2ccccc2nc1N1CCOCC1 (stereo not drawn) | inactive: 30.6% | –
41 | O=C(C[C@H]1C/C=C\C[C@H](NC(=O)OCC2c3ccccc3-c3ccccc32)C(=O)OC[C@@H]2CCCN2C1=O)N[C@H](CO)Cc1ccccc1 | inactive: -18.4% | –
42 | C=CC[C@@H](Cc1ccc(F)cc1)C(=O)OC[C@@H]1CCCN1C(=O)[C@@H](CC=C)CC(=O)N[C@@H](CO)Cc1ccccc1 | inactive: -8.29% | –
43 | O=C(C[C@@H]1C/C=C\C[C@@H](Cc2ccc(F)cc2)C(=O)OC[C@@H](Cc2c[nH]c3ccccc23)NC1=O)NCCO | inactive: 17.4% | –
44 | O=C(O)C1=CCC=CC1C(=O)O (stereo not drawn) | inactive: 35.2% | –
45 | COC(C[C@@H]1O[C@@H]1[C@H](O)[C@@H](C)OCc1ccccc1)OC | inactive: -21.1% | –
46 | CCOc1ccc(OCC)c(NS(=O)(=O)c2ccc3c(c2)CCN3C(=O)C2CCC2)c1 | inactive: -12.2% | –
47 | COC(=O)C1=C(C(=O)OC)[C@]2([C@H]3CC=CCN[C@@H](Cc4ccccc4)C(=O)N3Cc3ccccc3)C=C[C@H]1O2 | inactive: -25.7% | –
48 | C[C@@H]1CN([C@H](C)CO)C(=O)CCCn2nncc2CO[C@H]1CN(C)Cc1ccc(Oc2ccccc2)cc1 | inactive: -22.1% | –
49 | Cc1cccc(S(=O)(=O)N(C)C[C@@H]2OCc3cnnn3CCCC(=O)N([C@H](C)CO)C[C@@H]2C)c1 | inactive: 8.06% | –
50 | CC(NC1=CC(=O)c2cccnc2C1=O)C(O)c1ccccc1 (stereo not drawn) | – | active: 5.62 µM
51 | COCCN1C(=O)/C(=C/c2ccc(N3CCCC3)cc2)SC1=S | – | active: 5.01 µM
52 | Cc1nn(C)c(C)c1N1C(=O)c2cccc3c(N)ccc(c23)C1=O | – | active: 25.1 µM
53 | Cn1cccc1/C=C1\SC(=S)N(CC(=O)O)C1=O | inactive: -18.6% | –

Reference: PubChem BioAssay AID743255 (National Center for Advancing Translational Sciences (NCATS), 2014)
